# Laboratory results reported in PubChem BioAssay AID1345082 (National Center for Advancing Translational Sciences (NCATS), 2018).
# The campaign covered roughly 94,000 compounds. About 4,000 (4.3%) were called active. This list was built around the results that the source calls inconclusive (neither active nor inactive); the mix of calls is not that of the screen. Calls come from the whole dose curve; as a rule, active = well fitted inhibition curve with a large enough effect; inconclusive = small, poorly fitted or top-dose-only effect; inactive = no such curve, though single readings can be large or run the other way. Potencies of inconclusive entries are doubtful fits and often do not repeat.
# Experiment: Cytotoxic Profiling in NIH 3T3 Cell Line of Diverse Libraries Using Quantitative High-Throughput Screening; note: nearly all actives have a fitted effect of over 55% in size
# Conditions: NIH 3T3 viability, CellTiter-Glo ATP luminescence, 48-72 h; activity change, negative = cytotoxicity: at 96.7 µM (top of the series); series mostly up to 96.7 µM
# Outline: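 ATP-dependent luminescence (CellTiter-Glo) served as the viability signal for NIH 3T3 cells treated with compound for 48 or 72 hr at 37 °C.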
# % is set by controls: 0 for no effect and ±100 for the full control effect; potency is the fitted concentration of half-maximal effect; tags give direction and shape of the fitted curve.
Structure (SMILES),"activity change, negative = cytotoxicity",outcome,Potency
Cc1nn(C)cc1CN(C)C(=O)c1cn2ccnc(-c3ccccc3)c2n1,inactive: -25.3%,–,–
CN(C)Cc1nnc(C2CC(NC(=O)c3conc3-c3ccccc3)C2)n1C (centres undefined),–,inactive,–
O=C(C1CCCCC(=O)N1Cc1ccccc1)N1CCc2ccccc2C1 (centres undefined),–,–,"inconclusive: 50.1 µM [inhibitor, single point]"
CC(C)Cc1noc(-c2ccc(N3CCC(O)CC3)nc2)n1,–,–,"inconclusive: 50.1 µM [inhibitor, partial curve, poor fit]"
CN(C)S(=O)(=O)N1CCC(N2C(=O)C(OCC3CC3)C23CCCCC3)CC1 (centres undefined),inactive: 3.56%,–,–
CN1CC(=O)N(C2CCC2)Cc2c(NCCc3ccc(Cl)cc3)ncnc21,–,–,"inconclusive: 44.7 µM [inhibitor, partial curve, poor fit]"
CS(=O)(=O)N1CCCC1c1noc(CCC(=O)N2CCC(N3CCCCC3)CC2)n1 (centres undefined),–,inactive,–
O=C(Nc1ccc(Cl)cc1)c1nc2c(o1)CCN(Cc1cnc[nH]1)CC2,–,–,"inconclusive: 56.2 µM [inhibitor, partial curve, poor fit]"
Cc1cnc(C2CN(Cc3cccc(C#N)c3)C2)n1Cc1ccccc1,–,–,"inconclusive: 50.1 µM [inhibitor, partial curve, poor fit]"
COc1cc(OC)c(CN2CCCCCC2c2ccco2)c(OC)c1 (centres undefined),–,–,"inconclusive: 44.7 µM [inhibitor, partial curve, poor fit]"
Cc1cc(Cl)ccc1OCCN1CCN(CC2(O)CCCNC2)CC1 (centres undefined),–,–,active: 22.4 µM
Cc1cc(C)cc(-c2ccc(CN3CCCC3C(=O)Nc3ccccc3Cl)cc2)c1 (centres undefined),inactive: -18.4%,–,–
CN(C)C(=O)c1ccc(OC2CCN(C(=O)c3ccccc3F)CC2)nc1,inactive: -1.05%,–,–
COc1ccc(NC(=O)N2CCc3c(C(=O)NC(C)C)cccc32)cc1,–,–,"inconclusive: 39.8 µM [inhibitor, partial curve, poor fit]"
O=C(Cc1ccc(Br)cc1)N1CCCN(c2cc(-c3ccc(F)cc3)[nH]n2)CC1,–,–,"inconclusive: 20 µM [inhibitor, full curve, poor fit]"
Oc1cccc(CN(Cc2cn(-c3ccccc3)nn2)C2CC2)c1,–,–,"inconclusive: 39.8 µM [inhibitor, partial curve]"
COCCOC1CCN(C(=O)Nc2cccc(F)c2)CC1,inactive: 0.519%,–,–
CN1CCN(Cc2ccc(Nc3ncc(-c4cncnc4)c4c3OCC4)cc2)CC1,–,–,"inconclusive: 100 µM [inhibitor, partial curve, poor fit]"
CC(C)(O)c1cc(CC2(NCC3CCCCC3)COC2)no1,inactive: -12.4% [at 174 µM],–,–
CC1(c2ccccc2)N(Cc2ccccc2F)C(=O)OC12CCN(Cc1c[nH]c3ccccc13)CC2 (centres undefined),–,–,active: 17.8 µM
CN(CCc1ccccn1)[C@H]1[C@@H]2OC[C@@H](O2)[C@@H](NC(=O)Nc2cccc(C#N)c2)[C@@H]1O,inactive: -0.0621% [at 174 µM],–,–
C[C@@H](NC(=O)C1CCCC1)c1onc(-c2ccc(F)cc2)c1C(=O)O,inactive: 3% [at 138 µM],–,–

Structure (SMILES),"activity change, negative = cytotoxicity",outcome,Potency
O=C(NCCc1ccccc1F)c1nc2sccn2c1-c1ccncc1,–,–,"inconclusive: 56.2 µM [inhibitor, partial curve, poor fit]"
Cc1ccccc1NC(=O)Cn1c(C)cc2nc3n(c(=O)c21)CCCCC3,inactive: -8.62%,–,–
Cn1cc(-c2cnc(Nc3cnccn3)c3c2CCO3)cn1,–,–,"inconclusive: 56.2 µM [inhibitor, partial curve, poor fit]"
Cc1cccc(C2c3cc(OCc4nc(C(=O)NCC5CC5)co4)ccc3CCN2C(=O)C2CC2)c1 (centres undefined),–,–,"inconclusive: 12.6 µM [inhibitor, full curve, poor fit]"
O=C(NCCNC(=O)c1ccc(-c2cccc(C(F)(F)F)c2)cc1)c1ccncc1,–,–,"inconclusive: 44.7 µM [inhibitor, partial curve, poor fit]"
COc1ccc(CC(=O)N2CCC(Cc3nc(-c4ccc(F)cc4)no3)CC2)cc1,–,–,"inconclusive: 22.4 µM [inhibitor, partial curve, poor fit]"
COCCNC(=O)C1(C)CCc2cnc(Nc3cccc(OC)c3)nc21 (centres undefined),–,–,"inconclusive: 89.1 µM [inhibitor, partial curve, poor fit]"
COC1CN(c2cccc(F)c2)C12CCN(C(=O)C1CCCCC1)CC2 (centres undefined),inactive: -22%,–,–
CCn1cc(CN2CCCC23CCN(c2ccc(C(F)(F)F)cn2)CC3)cc1C#N,–,–,"inconclusive: 44.7 µM [inhibitor, partial curve, poor fit]"
Cc1cnc(-c2cccnc2)n1C1CCCN(CC2CCCCC2)C1 (centres undefined),–,–,"inconclusive: 35.5 µM [inhibitor, partial curve]"
CC(C)NC(=O)c1cc(-c2cccc(F)c2)nc2c1cnn2C,–,–,"inconclusive: 56.2 µM [inhibitor, partial curve, poor fit]"
CCn1cc(CN(C)C(=O)CN2C(=O)C(Oc3ccc(F)cc3)C23CCCCC3)c(C)n1 (centres undefined),–,–,"inconclusive: 50.1 µM [inhibitor, partial curve, poor fit]"
COc1ccc(-c2cc(N3CCCC(NC(=O)c4cc(Cl)ccc4OC)C3)n[nH]2)cc1 (centres undefined),–,–,"inconclusive: 44.7 µM [inhibitor, partial curve, poor fit]"
O=C(NC1CCCCC1)c1ccc2nnc(CC3CC3)n2c1,inactive: -25.2% [at 138 µM],–,–
O=C(NCCc1ccc(F)cc1)c1ccc2nnc(-c3cc(F)ccc3F)n2c1,–,–,"inconclusive: 39.8 µM [inhibitor, partial curve, poor fit]"
COc1ccc(NC(=O)C2(C)COCc3cnc(Nc4ccccc4)nc32)cn1 (centres undefined),–,–,"inconclusive: 63.1 µM [inhibitor, partial curve, poor fit]"
O=C([C@H]1CCCN1C(=O)c1ccc(C(F)(F)F)cc1)N1CCCC(c2nc3ccncc3[nH]2)C1 (some centres undefined),inactive: -20.2%,–,–
CN(Cc1cccnc1)c1nc2c(c(=O)[nH]1)CCN(Cc1ccc(F)cc1Cl)CC2,–,–,"inconclusive: 39.8 µM [inhibitor, partial curve, poor fit]"
Cc1ccc(-n2c(C3CCN(C(=O)c4cc(Cl)ccc4F)CC3)n[nH]c2=O)cc1,–,–,"inconclusive: 50.1 µM [inhibitor, partial curve, poor fit]"
Cc1cc2cc(-c3c(C)noc3C)nc(NCCN(C)C)c2o1,–,–,"inconclusive: 50.1 µM [inhibitor, partial curve, poor fit]"
COc1ccc([S+](=O)([O-])N2CCC3(CC2)OCCN(CC2CC2)C3=O)cc1,–,–,"inconclusive: 56.2 µM [inhibitor, partial curve, poor fit]"
O=C(NCc1ccccc1Cl)C1CCN(Cc2ccccc2-c2ccccc2F)CC1,–,–,active: 44.7 µM

Structure (SMILES),"activity change, negative = cytotoxicity",outcome,Potency
Cc1ccc(C)c(S(=O)(=O)N2[C@@H]3CC[C@H]2CC(NC(=O)c2ccc(F)cc2)C3)c1 (some centres undefined),–,–,"inconclusive: 44.7 µM [inhibitor, partial curve, poor fit]"
Cc1ccc(C)c(S(=O)(=O)N2CCCC(Cn3c(C4CC4)nc4cccnc43)C2)c1 (centres undefined),–,–,"inconclusive: 50.1 µM [inhibitor, partial curve, poor fit]"
Cc1cccc(C(=O)N2CCC(c3noc(COc4cccnc4)n3)CC2)c1,–,–,"inconclusive: 50.1 µM [inhibitor, partial curve, poor fit]"
Cn1cccc1-c1noc(C2CCN(C(=O)CCc3nc4ccccc4s3)C2)n1 (centres undefined),–,–,"inconclusive: 35.5 µM [inhibitor, full curve, poor fit]"
CC(C)C[C@@H]1N[C@H](C(=O)N2CCN(c3ncccn3)CC2)Cc2c[nH]c3cccc1c23,–,–,"inconclusive: 89.1 µM [inhibitor, partial curve, poor fit]"
O=C1NCCCCCCN(C(=O)C2CC=CC2)[C@H]2C[C@H](c3nc(Cc4ccccc4)no3)C[C@@H]12,–,–,"inconclusive: 63.1 µM [inhibitor, partial curve, poor fit]"
c1ccc(-c2ccnc(NCCc3c[nH]c4ccccc34)n2)nc1,–,–,"inconclusive: 79.4 µM [inhibitor, partial curve, poor fit]"
CC(C)CN1C(=O)c2cccn2CC1CNC(=O)c1ccc2ccccc2n1 (centres undefined),–,–,"inconclusive: 28.2 µM [inhibitor, partial curve, poor fit]"
COc1cccc(C(=O)N2CCC3(CC2)NC(=O)N(c2cccc(F)c2)N3)c1OC,inactive: -22.8%,–,–
CCOC(=O)[C@@H]1[C@@H](OC)C(=O)N(C)C12CCN(C(=O)OCC(C)(C)C)CC2,–,–,"inconclusive: 50.1 µM [inhibitor, partial curve, poor fit]"
CNCc1cccc(F)c1,–,inactive [at 174 µM],–
CN1c2cccnc2CN(Cc2ccccn2)CC[C@H]1CO,inactive: -8.18% [at 174 µM],–,–
O=C(C1CCCCC1)N1CCC(C2CCN(Cc3cccc(F)c3F)CC2)C1 (centres undefined),–,–,"inconclusive: 50.1 µM [inhibitor, partial curve, poor fit]"
C=CCNC(=O)N[C@H]1C[C@@H](C(=O)N[C@H](Cc2c[nH]c3ccccc23)C(N)=O)N(C(=O)C=C(C)C)C1,inactive: -1.24%,–,–
O=C(Nc1ccc(Cl)cc1)NC1CCN(CCn2nc3n(c2=O)CCCC3)C1 (centres undefined),–,–,"inconclusive: 56.2 µM [inhibitor, partial curve, poor fit]"
CC(=O)N1CCC(N2CC[C@H](c3nc4ccc(F)cc4[nH]3)C2)CC1,inactive: -6.22% [at 174 µM],–,–
O=C(CC(c1ccccc1)c1ccc(Cl)cc1)N1CCOCC1 (centres undefined),inactive: -19.1%,–,–
Cc1cn2nc(C(=O)Nc3ccccc3C)cc2c(N(C)Cc2ccccc2)n1,–,–,"inconclusive: 35.5 µM [inhibitor, partial curve]"
Cc1cc(NC(=O)CN2C(=O)NC(c3ccc(Cl)cc3)C3=C2COC3=O)no1 (centres undefined),–,–,"inconclusive: 25.1 µM [inhibitor, full curve]"
O=C1NC2(CCCN(Cc3cccc4ccccc34)C2)Oc2ccccc21 (centres undefined),–,–,"inconclusive: 44.7 µM [inhibitor, partial curve, poor fit]"
